# Reference: PubChem BioAssay AID485294 (National Center for Advancing Translational Sciences (NCATS), 2010)
# Screen size: about 370,000 compounds; about 150 (0.041%) were called active. Inconclusive means that the source gave no clear call. Such entries were picked first, then a sample of the others. The call rests on the fitted dose curve; in most records, active means well fitted inhibition curve with a large enough effect; inconclusive means small, poorly fitted or top-dose-only effect; inactive means flat fitted curve, though single readings scatter. No potency is given beside an inconclusive call; the fits are too rough.
# Target: Beta-lactamase (Escherichia coli (strain K12)) (UniProt P00811)
# Assay: qHTS Inhibitors of AmpC Beta-Lactamase (assay with detergent); further: nearly all actives have a fitted effect of over 25% in size;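 on activity change, negative = inhibition: 0% = no-compound wells and -100% = no-enzyme wells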
# Conditions: AmpC hydrolysis of nitrocefin, absorbance 480 nm, 0.01% Triton; activity change, negative = inhibition: at 114 µM (top of the series)
# In short: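 AmpC (5.3 nM in the dispensed reagent) in 20 mM phosphate pH 7.0 with 0.01% (detergent screen) or 0.0001% Triton X-100 was preincubated with compounds for 15 min at room temperature. Nitrocefin was then added from an 800 uM solution, and hydrolysis was followed at 480 nm.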
# Potency means the concentration at half of the fitted maximal effect; tags describe the fitted curve by direction and shape.
# Sequence of UniProt P00811 (P00811 whole entry, looked up): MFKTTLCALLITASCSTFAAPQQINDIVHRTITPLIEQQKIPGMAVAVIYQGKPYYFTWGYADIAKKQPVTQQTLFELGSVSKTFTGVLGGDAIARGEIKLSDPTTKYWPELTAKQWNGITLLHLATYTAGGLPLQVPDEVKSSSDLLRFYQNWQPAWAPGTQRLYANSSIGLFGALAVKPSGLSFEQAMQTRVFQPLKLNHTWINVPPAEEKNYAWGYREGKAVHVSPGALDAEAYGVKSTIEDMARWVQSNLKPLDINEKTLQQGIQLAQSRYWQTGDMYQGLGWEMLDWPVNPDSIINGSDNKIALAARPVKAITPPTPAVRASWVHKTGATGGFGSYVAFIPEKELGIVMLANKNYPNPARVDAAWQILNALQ
Structure (SMILES),Potency,"activity change, negative = inhibition"
O=C(CCC(=O)N1CCN(c2ccccc2F)CC1)N1CCN(c2ccccc2)CC1,"inconclusive [inhibitor, full curve, poor fit]",
CCCc1ccc(-c2ccc(C(=O)O)cc2)nc1,inactive,
OCCC1CN(Cc2cccn2-c2ncccn2)CCN1Cc1ccccc1 (stereo unspecified),inactive,
COC(=O)c1ccc(C(=O)OC)c(NC(=S)N2CCCCC2)c1,"inconclusive [inhibitor, full curve]",
CCCCCCCN1C(Nc2ccccc2)=NC[C@@H]1Cc1ccccc1,"inconclusive [inhibitor, full curve, poor fit]",
C[C@@]1([C@@H](NP(=O)(c2ccccc2)c2ccccc2)c2ccccc2)C[C@H]1CCO,"inconclusive [inhibitor, full curve, poor fit]",
COC(=O)C1=C(C)N(CC2CC2)C(=NCc2cccc(Cl)c2)N[C@H]1c1ccccc1,"inconclusive [inhibitor, single point]",
OCc1nc2ccccc2n1C/C=C/c1ccccc1,"inconclusive [inhibitor, single point]",
Cc1onc(-c2ccccc2)c1C(=O)OCC(=O)Nc1ccc2c(c1)OCO2,"inconclusive [inhibitor, partial curve, poor fit]",
CC1(C(=O)NC2CCCCC2)Cc2ccccc2C(=O)N1Cc1ccc(Cl)cc1 (stereo unspecified),inactive,
O=C(c1ccc(-c2ccc([N+](=O)[O-])cc2)o1)N1CCCCC1,inactive,
COc1cc(CNn2nnnc2N)ccc1OCC(=O)NC(C)(C)C,"inconclusive [inhibitor, partial curve, poor fit]",
CC1(C)Cc2c(c(-c3ccccc3)[nH]c(=O)c2C#N)CS1,"inconclusive [inhibitor, full curve]",
COc1cc2ncnc(NCc3cc(F)ccc3F)c2cc1OC,inactive,
COc1ccc(OC)c(NC(=O)CN2CCN(C(=O)c3ccco3)CC2)c1,"inconclusive [inhibitor, full curve, poor fit]",
C#CCNC(=O)C1=C[C@H](c2ccc(Br)cc2)C[C@H](OCCCCO)O1,inactive,
CC(C)Sc1nc2c(cnn2-c2ccc(F)cc2)c(=O)[nH]1,"inconclusive [inhibitor, full curve, poor fit]",
COc1ccc(N(CC(=O)NC(C)(C)C)C(=O)CCC(=O)Nc2nccs2)c(OC)c1,"inconclusive [inhibitor, full curve, poor fit]",
COc1ccc(OC)c(NC(=O)c2cc3c(=O)n4ccccc4nc3n2C)c1,"inconclusive [inhibitor, single point]",
COC(=O)Cc1[nH]nc2c1C(C1C=CCCC1)C(C#N)=C(N)O2 (stereo unspecified),"inconclusive [inhibitor, full curve, poor fit]",
C=C1N(C)c2cc([N+](=O)[O-])c(N)cc2C1(C)C,inactive,
c1ccc(Nc2ccccn2)nc1,inactive,
CCCCn1nnc(NC(=O)c2ccc([N+](=O)[O-])cc2Cl)n1,inactive,
CCOC(=O)C1CCN(C(=O)CSc2n[nH]c(-c3ccccc3Cl)n2)CC1,inactive,

Structure (SMILES),Potency,"activity change, negative = inhibition"
O=C(COc1ccc(Cl)cc1)N1CCN(C/C=C/c2ccccc2)CC1,"inconclusive [inhibitor, full curve, poor fit]",
CN(C)c1ccc(C(CNC(=O)Cc2ccc(Cl)cc2)N2CCOCC2)cc1 (stereo unspecified),inactive,
O=C(c1cccs1)N1CCN(S(=O)(=O)c2ccccc2)CC1,"inconclusive [inhibitor, single point]",
COc1ccc(-c2cc(C(=O)N/N=C(\C)c3cccnc3)c3ccccc3n2)c(OC)c1,inactive,
O=C1CN(C(=O)c2ccc(Cl)cc2Cl)C(c2ccc(F)cc2)c2cc(F)ccc2N1 (stereo unspecified),inactive,
Brc1ccccc1CN1CCC(N2CCCCC2)CC1,inactive,
CC(=O)c1ccc(OCCCC(=O)Nc2ccc(C)c(S(=O)(=O)N3CCOCC3)c2)cc1,"inconclusive [inhibitor, full curve, poor fit]",
COc1ccccc1N=Cc1c(C)[nH]n(-c2ccc(C)cc2C)c1=O,inactive,
CC(=O)N/N=C/c1cc([N+](=O)[O-])ccc1OCCOc1ccccc1,inactive,
Cc1ccc(S(=O)(=O)c2cc(O)ccc2O)cc1C,inactive,
NC(=O)c1cc([N+](=O)[O-])c(Cl)cc1NCc1ccccn1,inactive,
O=C(c1cccc(S(=O)(=O)N2CCCCCC2)c1)N1CCN(c2ccccc2F)CC1,inactive,
COc1ccc(C(=O)OCC(=O)Nc2ccc(OC(F)F)cc2)c(OC)c1,inactive,
NC(=O)c1c(NC(=O)c2ccncc2)sc2c1CCCC2,inactive,
COc1ccccc1N1CCN(C(=O)Cc2c(C(=O)O)[nH]c3ccc(Cl)cc23)CC1,"inconclusive [inhibitor, full curve, poor fit]",
Cc1ccc(-n2cnc3c(sc4nccc(N(C)C)c43)c2=O)cc1,"inconclusive [inhibitor, full curve, poor fit]",
CSCCC(NC(=O)c1ccccc1)C(=O)Nc1ccc(NC(C)=O)cc1 (stereo unspecified),"inconclusive [inhibitor, partial curve, poor fit]",
CCOC(=O)c1ccc(N2C(=O)CC(N(C)CCc3ccc(OC)c(OC)c3)C2=O)cc1 (stereo unspecified),inactive,
CN(C)C(=O)c1ccc(NC(=O)CSc2nnc(-c3cccs3)n2N)cc1,"inconclusive [inhibitor, partial curve, poor fit]",
CCOC(=O)c1c(-c2ccc(F)cc2)csc1NC(=O)CCN1CCOCC1,"inconclusive [inhibitor, full curve, poor fit]",
O=[N+]([O-])c1ccc(S(=O)(=O)NCC2CCCO2)cc1 (stereo unspecified),,inconclusive: -21.3% [inhibitor]
Cc1cccc(-c2nc3c(cnn3-c3ccccc3)c(=O)n2-c2cccc(Cl)c2)c1,inactive,
COc1cccc(NC(=O)C(C)Sc2nnc(C3CC3)n2C2CC2)c1 (stereo unspecified),"inconclusive [inhibitor, single point]",
CN(C)S(=O)(=O)c1cccc(NC(=O)c2cccc(N3C(=O)CCC3=O)c2)c1,"inconclusive [inhibitor, full curve, poor fit]",

Structure (SMILES),Potency,"activity change, negative = inhibition"
CCCC1C2C(=O)N(c3cccc(C)c3)C(=O)C2ON1c1ccccc1 (stereo unspecified),"inconclusive [inhibitor, full curve, poor fit]",
O=C(Cc1ccccc1)N/N=C/c1ccc([N+](=O)[O-])s1,inactive,
CCN(C(=O)CSc1nnc(-c2ccccc2C)n1C)c1c(N)n(Cc2ccccc2)c(=O)[nH]c1=O,"inconclusive [inhibitor, full curve, poor fit]",
C/C(=N\NC(=O)c1cccc(S(=O)(=O)N2CCCC2)c1)c1cccs1,inactive,
CN(C1CCS(=O)(=O)C1)S(=O)(=O)c1ccc(N2CCCC2=O)cc1 (stereo unspecified),"inconclusive [inhibitor, full curve, poor fit]",
COc1ccc(N(C(=O)c2snc(C(N)=O)c2N)C(C(=O)NC2CCCC2)c2ccc(F)cc2)c(OC)c1 (stereo unspecified),inactive,
COc1ccc(C2C(=O)N(C3CCCCCC3)CC(=O)N2CCc2ccccc2)cc1 (stereo unspecified),inactive,
CC(=O)c1cn(CCC(C)C)c(=O)[nH]c1=O,"inconclusive [inhibitor, partial curve]",
Cc1nc([N+](=O)[O-])cn1CC(=O)Nc1ccc(F)c(Cl)c1,"inconclusive [inhibitor, full curve, poor fit]",
COc1ccc(C(c2sc3nc(C)nn3c2O)N2CCC(C(N)=O)CC2)cc1OC (stereo unspecified),"inconclusive [inhibitor, full curve, poor fit]",
COc1ccc2oc(C(=O)OCC(=O)Nc3ccccc3)c(C)c2c1,inactive,
COc1ccc(C(=O)Nc2ccc(OCc3ccccc3)cc2)cc1[N+](=O)[O-],"inconclusive [inhibitor, full curve, poor fit]",
O=C(Nc1ncc(Br)s1)C1CCCN1S(=O)(=O)c1cccc2cccnc12 (stereo unspecified),"inconclusive [inhibitor, full curve, poor fit]",
Cc1ccccc1C(=O)N[C@H](C(=O)Nc1ccc(Cl)c(Cl)c1)C(C)C,"inconclusive [inhibitor, full curve, poor fit]",
O=S(=O)(c1ccc(O)cc1)c1ccc(O)cc1,inactive,
COc1ccc(NC2CCCN(C(=O)c3ccccc3C(F)(F)F)C2)cc1 (stereo unspecified),"inconclusive [inhibitor, partial curve, poor fit]",
Cc1ccc(C(CC(=O)NCC2(c3ccccc3)CCCC2)c2ccccc2)c(O)c1 (stereo unspecified),"inconclusive [inhibitor, single point]",
O=C(NCC(c1ccco1)N1CCN(c2ccccc2)CC1)c1ccc2c(c1)OCO2 (stereo unspecified),"inconclusive [inhibitor, full curve, poor fit]",
Cc1ccc(S(=O)(=O)N2CCN(C(=O)COC(=O)c3ccccn3)CC2)c(C)c1,"inconclusive [inhibitor, full curve, poor fit]",
CCOc1ccc(Nc2oc(-c3ccc(COc4ccccc4C)o3)nc2C#N)cc1,inactive,
CCCN(CCC)C(=O)CSc1ncccc1C(=O)O,"inconclusive [inhibitor, partial curve, poor fit]",
COC(=O)c1ccc(-n2c(C)ccc2-c2ccccc2)cc1,inactive,
CCOc1ccc(N2C(=O)/C(=C/c3ccco3)C(=O)NC2=S)cc1,"inconclusive [inhibitor, partial curve, poor fit]",
